Numbering of substitutions follows the chain as printed; changes in the protein carry UniProt numbers. This is one part of the list.

Sequences and labels used below:
B1: GGACCUC (DNA:RNA)
RNA: GGGAGACCGGAAUUCAGAUUGUCCGGACCUCUUAAAUCCCGUCGUAGCCACCA
DNA 1: CAATCTGAATTCCGGTCTCCC
DNA 2: TGGTGGCTACGACGGGATT
B2: AUACAAA (DNA:RNA)
RNA: B1 RNA with G25A, G26U, C29A, U30A, C31A
DNA 1: CAATCTGAATTCCGGTCTCCC
DNA 2: TGGTGGCTACGACGGGATT
B3: GCGUACA (DNA:RNA)
RNA: B1 RNA with G26C, A27G, C28U, C29A, U30C, C31A
DNA 1: CAATCTGAATTCCGGTCTCCC
DNA 2: TGGTGGCTACGACGGGATT
B4: GCCUGGU (DNA:RNA)
RNA: B1 RNA with G26C, A27C, C28U, C29G, U30G, C31U
DNA 1: CAATCTGAATTCCGGTCTCCC
DNA 2: TGGTGGCTACGACGGGATT
B5: ACCCUUU (DNA:RNA)
RNA: B1 RNA with G25A, G26C, A27C, C29U, C31U
DNA 1: CAATCTGAATTCCGGTCTCCC
DNA 2: TGGTGGCTACGACGGGATT
B6: AUCGCGG (DNA:RNA)
RNA: B1 RNA with G25A, G26U, A27C, C28G, U30G, C31G
DNA 1: CAATCTGAATTCCGGTCTCCC
DNA 2: TGGTGGCTACGACGGGATT
B7: AUGCGCA (DNA:RNA)
RNA: B1 RNA with G25A, G26U, A27G, C29G, U30C, C31A
DNA 1: CAATCTGAATTCCGGTCTCCC
DNA 2: TGGTGGCTACGACGGGATT
B8: CCCCAUG (DNA:RNA)
RNA: B1 RNA with G25C, G26C, A27C, C29A, C31G
DNA 1: CAATCTGAATTCCGGTCTCCC
DNA 2: TGGTGGCTACGACGGGATT
B9: CGGGAGA (DNA:RNA)
RNA: B1 RNA with G25C, A27G, C28G, C29A, U30G, C31A
DNA 1: CAATCTGAATTCCGGTCTCCC
DNA 2: TGGTGGCTACGACGGGATT
B10: CAAAGCA (DNA:RNA)
RNA: B1 RNA with G25C, G26A, C28A, C29G, U30C, C31A
DNA 1: CAATCTGAATTCCGGTCTCCC
DNA 2: TGGTGGCTACGACGGGATT
B11: AAACUAC (DNA:RNA)
RNA: B1 RNA with G25A, G26A, C29U, U30A
DNA 1: CAATCTGAATTCCGGTCTCCC
DNA 2: TGGTGGCTACGACGGGATT
B12: UUCUGGG (DNA:RNA)
RNA: GGGAGACCGGAAUUCAGAUUGUCCUUCUGGGUUAAAUCCCGUCGUAGCCACCA
DNA 1: CAATCTGAATTCCGGTCTCCC
DNA 2: TGGTGGCTACGACGGGATT
B13: GGAACUU (DNA:RNA)
RNA: B1 RNA with C28A, C31U
DNA 1: CAATCTGAATTCCGGTCTCCC
DNA 2: TGGTGGCTACGACGGGATT
B14: CGCCAGC (DNA:RNA)
RNA: B1 RNA with G25C, A27C, C29A, U30G
DNA 1: CAATCTGAATTCCGGTCTCCC
DNA 2: TGGTGGCTACGACGGGATT
B15: GACGUCU (DNA:RNA)
RNA: B1 RNA with G26A, A27C, C28G, C29U, U30C, C31U
DNA 1: CAATCTGAATTCCGGTCTCCC
DNA 2: TGGTGGCTACGACGGGATT
B16: GAGGCAU (DNA:RNA)
RNA: B1 RNA with G26A, A27G, C28G, U30A, C31U
DNA 1: CAATCTGAATTCCGGTCTCCC
DNA 2: TGGTGGCTACGACGGGATT
B17: CGCCGCA (DNA:RNA)
RNA: B1 RNA with G25C, A27C, C29G, U30C, C31A
DNA 1: CAATCTGAATTCCGGTCTCCC
DNA 2: TGGTGGCTACGACGGGATT
B18: CUUUUUA (DNA:RNA)
RNA: B12 RNA with U25C, C27U, G29U, G30U, G31A
DNA 1: CAATCTGAATTCCGGTCTCCC
DNA 2: TGGTGGCTACGACGGGATT
B19: CAUUGGA (DNA:RNA)
RNA: B12 RNA with U25C, U26A, C27U, G31A
DNA 1: CAATCTGAATTCCGGTCTCCC
DNA 2: TGGTGGCTACGACGGGATT
B20: AUGUGAU (DNA:RNA)
RNA: B12 RNA with U25A, C27G, G30A, G31U
DNA 1: CAATCTGAATTCCGGTCTCCC
DNA 2: TGGTGGCTACGACGGGATT

The test addresses T1, RBFOX1 RRM (Homo sapiens, UniProt Q9NWB1 109-208).
T1 sequence: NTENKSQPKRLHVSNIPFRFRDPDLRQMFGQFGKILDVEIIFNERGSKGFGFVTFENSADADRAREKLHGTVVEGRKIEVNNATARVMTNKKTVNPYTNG
The test can be described thus: EMSA; HiTS-Eq, 1 nM pool, 10 min; buffer printed only for the single-RNA assays: 10 mM Tris pH 7.5, 150 mM NaCl, 3.4 mM EDTA, 0.001% NP-40, 30 C. The conditions noted are these: tags: His6 N-terminal (pET28a); label: 5' 32P. In short, it runs like this: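 Relative association constants, normalised to the cognate motif, were derived by comparing read counts of each RNA species with those of the control reaction. The RNA sequenced was the free fraction, separated by 8% native PAGE after a 10 min equilibration in 50 µL of 1 nM 5′-radiolabelled RNA (7 randomized nucleotides) with increasing concentrations of purified wild-type or mutant RbFox RRM.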
(In general: In EMSA bound probe runs differently from free probe, usually more slowly.)
B1: the binding signal was 0.00453 KA relative to UGCAUGU.
For the molecule B2, the binding signal was 0.00265 KA relative to UGCAUGU.
Take B3: the binding signal was 0.00634 KA relative to UGCAUGU.
Consider B4, for which the binding signal was 0.0305 KA relative to UGCAUGU.
With B5, the binding signal was 0.00524 KA relative to UGCAUGU.
For the molecule B6, the binding signal was 0.00774 KA relative to UGCAUGU.
For the molecule B7, the binding signal was 0.0159 KA relative to UGCAUGU.
The result for B8 reads 0.0201 KA relative to UGCAUGU.
Consider B9, for which the binding signal is 0.0222 KA relative to UGCAUGU.
Then B10, with 0.00458 KA relative to UGCAUGU; and B11, with 0.00173 KA relative to UGCAUGU; and B12, with 0.00549 KA relative to UGCAUGU.
In the case of B13, the binding signal is 0.0138 KA relative to UGCAUGU.
For B14, the binding signal is 0.00891 KA relative to UGCAUGU.
B15: the binding signal is 0.0143 KA relative to UGCAUGU.
Then B16, with 0.0219 KA relative to UGCAUGU; and B17, with 0.0104 KA relative to UGCAUGU; and B18, with 0.00566 KA relative to UGCAUGU.
The result for B19 reads 0.00454 KA relative to UGCAUGU.
The result for B20 reads 0.0107 KA relative to UGCAUGU.

Values taken from paper PMC9911399, “Two distinct binding modes provide the RNA-binding protein RbFox with extraordinary sequence specificity”.
